# Measured values from the supplement of paper PMC8728848.
# The other results are listed elsewhere or left out.
# B1: Mg1lysM (Mycosphaerella graminicola) (protein)
# chain: QRNPITITPQFDCGATNSQQYVARSGDTLTKIAQEIYHDVVGVCDIARANNLADPNRIDAGTPYTIPINCQTYDRNSCL
# How the values were obtained:
# Assay in all cases: glycan array binding signal (z-score within array); higher = stronger binding
# Conditions in all cases: glycan notation: IUPAC condensed, linker removed
# [1] = target: Gal6S(b1-4)Glc
# Procedure, shortened: (§1)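 Columns mapping to the same glycan were averaged after glycan names were converted to IUPAC-condensed notation. The data come from 3228 arrays in the Consortium for Functional Glycomics database, limited to those with an available protein sequence. Binding is reported as a within-array Z-score averaged across arrays of one protein sequence and across linkers.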
# [2] = target: Gal6S(b1-4)Glc6S
# Procedure, shortened: as §1
# [3] = target: Gal6S(b1-4)GlcNAc
# Procedure, shortened: as §1
# [4] = target: Gal6S(b1-4)GlcNAc6S
# Procedure, shortened: as §1
# [5] = target: GalNAc(a1-3)Gal
# Procedure, shortened: as §1
# [6] = target: GalNAc(a1-3)GalNAc
# Procedure, shortened: as §1
# [7] = target: GalNAc(a1-3)GalNAc(b1-3)Gal(a1-4)Gal(b1-4)Glc
# Procedure, shortened: as §1
# [8] = target: GalNAc(a1-3)GalNAc(b1-3)Gal(a1-4)Gal(b1-4)GlcNAc
# Procedure, shortened: as §1
# [9] = target: GalNAc(b1-3)Gal
# Procedure, shortened: as §1
# [10] = target: GalNAc(b1-3)Gal(a1-4)Gal(b1-4)GlcNAc
# Procedure, shortened: as §1
# [11] = target: GalNAc(b1-3)Gal(a1-4)Gal(b1-4)GlcNAc(b1-3)Gal(b1-4)Glc
# Procedure, shortened: as §1
# [12] = target: GalNAc(b1-3)Gal(a1-6)Gal(b1-4)Glc
# Procedure, shortened: as §1
# [13] = target: GalNAc(b1-3)GalNAc
# Procedure, shortened: as §1
# [14] = target: GalNAc(b1-3)GlcNAc
# Procedure, shortened: as §1
# [15] = target: GalNAc(b1-4)Gal(b1-4)Glc
# Procedure, shortened: as §1
# [16] = target: GalNAc(b1-4)GlcNAc
# Procedure, shortened: as §1
# [17] = target: GalNAc(b1-4)GlcNAc(b1-2)Man
# Procedure, shortened: as §1
# [18] = target: GalNAc(b1-4)GlcNAc(b1-2)Man(a1-3)[GalNAc(b1-4)GlcNAc(b1-2)Man(a1-6)]Man(b1-4)GlcNAc(b1-4)GlcNAc
# Procedure, shortened: as §1
# [19] = target: GalNAc(b1-4)GlcNAc(b1-3)GalNAc(b1-4)GlcNAc
# Procedure, shortened: as §1
# [20] = target: GalNAc(b1-4)GlcNAc6S
# Procedure, shortened: as §1
# [21] = target: GalNAc(b1-6)GalNAc
# Procedure, shortened: as §1
# [22] = target: GalNAc3S(b1-4)GlcNAc
# Procedure, shortened: as §1
# [23] = target: GalNAc3S(b1-4)GlcNAc3S
# Procedure, shortened: as §1
# [24] = target: GalNAc3S(b1-4)[Fuc(a1-3)]GlcNAc
# Procedure, shortened: as §1
# [25] = target: GalNAc4S6S(b1-4)GlcNAc
# Procedure, shortened: as §1
# [26] = target: GalNAc6S(b1-4)GlcNAc
# Procedure, shortened: as §1
# [27] = target: Glc(a1-4)Glc
# Procedure, shortened: as §1
# [28] = target: Glc(a1-4)Glc(a1-4)Glc(a1-4)Glc
# Procedure, shortened: as §1
# [29] = target: Glc(a1-6)Glc(a1-6)Glc
# Procedure, shortened: as §1
# [30] = target: Glc(a1-6)Glc(a1-6)Glc(a1-6)Glc
# Procedure, shortened: as §1
# [31] = target: Glc(b1-4)Glc
# Procedure, shortened: as §1
# [32] = target: Glc(b1-6)Glc
# Procedure, shortened: as §1
# [33] = target: GlcA(b1-3)Gal
# Procedure, shortened: as §1
# [34] = target: GlcA(b1-3)GlcNAc
# Procedure, shortened: as §1
# [35] = target: GlcA(b1-6)Gal
# Procedure, shortened: as §1
# [36] = target: GlcA3S(b1-3)Gal(b1-4)GlcNAc(b1-2)Man
# Procedure, shortened: as §1
# [37] = target: GlcA3S(b1-3)Gal(b1-4)GlcNAc(b1-3)Gal(b1-4)Glc
# Procedure, shortened: as §1
# [38] = target: GlcNAc(a1-3)Gal(b1-4)GlcNAc
# Procedure, shortened: as §1
# [39] = target: GlcNAc(a1-4)Gal(b1-3)GlcNAc
# Procedure, shortened: as §1
# [40] = target: GlcNAc(a1-4)Gal(b1-4)GalNAc
# Procedure, shortened: as §1
# [41] = target: GlcNAc(a1-4)Gal(b1-4)GlcNAc
# Procedure, shortened: as §1
# [42] = target: GlcNAc(a1-4)Gal(b1-4)GlcNAc(b1-3)Gal(b1-4)Glc
# Procedure, shortened: as §1
# [43] = target: GlcNAc(a1-4)Gal(b1-4)GlcNAc(b1-3)Gal(b1-4)GlcNAc
# Procedure, shortened: as §1
# [44] = target: GlcNAc(a1-4)Gal(b1-4)GlcNAc(b1-3)Gal(b1-4)GlcNAc(b1-3)Gal(b1-4)GlcNAc
# Procedure, shortened: as §1
# [45] = target: GlcNAc(a1-4)Gal(b1-4)GlcNAc(b1-3)Gal(b1-4)[Fuc(a1-3)]GlcNAc(b1-3)Gal(b1-4)[Fuc(a1-3)]GlcNAc
# Procedure, shortened: as §1
binder,measurement,setting,value
B1,glycan array binding signal (z-score),[1],-0.082
same,glycan array binding signal (z-score),[2],-0.07
same,glycan array binding signal (z-score),[3],-0.051
same,glycan array binding signal (z-score),[4],-0.069
same,glycan array binding signal (z-score),[5],-0.076
same,glycan array binding signal (z-score),[6],0.308
same,glycan array binding signal (z-score),[7],-0.058
same,glycan array binding signal (z-score),[8],-0.056
same,glycan array binding signal (z-score),[9],-0.082
same,glycan array binding signal (z-score),[10],-0.197
same,glycan array binding signal (z-score),[11],-0.074
same,glycan array binding signal (z-score),[12],-0.03
same,glycan array binding signal (z-score),[13],-0.062
same,glycan array binding signal (z-score),[14],-0.076
same,glycan array binding signal (z-score),[15],-0.057
same,glycan array binding signal (z-score),[16],-0.062
same,glycan array binding signal (z-score),[17],-0.062
same,glycan array binding signal (z-score),[18],-0.092
same,glycan array binding signal (z-score),[19],-0.075
same,glycan array binding signal (z-score),[20],-0.084
same,glycan array binding signal (z-score),[21],-0.074
same,glycan array binding signal (z-score),[22],-0.078
same,glycan array binding signal (z-score),[23],-0.057
same,glycan array binding signal (z-score),[24],0.01
same,glycan array binding signal (z-score),[25],-0.069
same,glycan array binding signal (z-score),[26],-0.049
same,glycan array binding signal (z-score),[27],-0.072
same,glycan array binding signal (z-score),[28],-0.073
same,glycan array binding signal (z-score),[29],-0.056
same,glycan array binding signal (z-score),[30],-0.054
same,glycan array binding signal (z-score),[31],-0.067
same,glycan array binding signal (z-score),[32],-0.076
same,glycan array binding signal (z-score),[33],-0.055
same,glycan array binding signal (z-score),[34],-0.09
same,glycan array binding signal (z-score),[35],-0.062
same,glycan array binding signal (z-score),[36],-0.053
same,glycan array binding signal (z-score),[37],-0.083
same,glycan array binding signal (z-score),[38],-0.079
same,glycan array binding signal (z-score),[39],-0.015
same,glycan array binding signal (z-score),[40],-0.079
same,glycan array binding signal (z-score),[41],-0.043
same,glycan array binding signal (z-score),[42],-0.084
same,glycan array binding signal (z-score),[43],-0.079
same,glycan array binding signal (z-score),[44],-0.078
same,glycan array binding signal (z-score),[45],-0.067
